# In the supplement of paper PMC3334620:
# The full ranking holds about 33,000 sequences; the median of “E-score (-0.5 to 0.5)” is about -0.016, and the highest 2% start at about 0.32. This is one part of the list.
# Molecular target: T1, Stp1 (UniProt B3LFK1)
# T1 sequence: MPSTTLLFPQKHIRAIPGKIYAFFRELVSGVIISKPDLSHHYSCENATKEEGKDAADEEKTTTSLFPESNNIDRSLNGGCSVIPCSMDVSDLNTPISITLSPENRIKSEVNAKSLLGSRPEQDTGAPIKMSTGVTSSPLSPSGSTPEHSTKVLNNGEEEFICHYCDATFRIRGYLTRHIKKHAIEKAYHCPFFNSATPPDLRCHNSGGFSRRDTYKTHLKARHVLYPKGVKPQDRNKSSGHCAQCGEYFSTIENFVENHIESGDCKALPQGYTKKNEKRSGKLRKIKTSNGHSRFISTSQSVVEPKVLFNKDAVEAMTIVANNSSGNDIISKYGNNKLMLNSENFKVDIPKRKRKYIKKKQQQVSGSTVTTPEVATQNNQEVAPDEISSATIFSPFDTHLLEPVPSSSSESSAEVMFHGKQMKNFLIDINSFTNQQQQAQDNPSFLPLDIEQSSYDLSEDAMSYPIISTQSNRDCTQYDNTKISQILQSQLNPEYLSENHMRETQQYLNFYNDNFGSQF
# Assay: PBM E-score (8-mer binding enrichment) (E-score (-0.5 to 0.5)); higher = stronger / more preferred TF binding; most listed sequences are background and not binding sites
# Conditions: protein concentration: 200 nM; construct: GST-full length
# Outline: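 Detection of bound protein used fluorescent anti-GST, with scans normalised by masliner. The proteins were GST-tagged yeast transcription factors applied at about 100-200 nM to universal all-10-mer Agilent arrays made double-stranded by primer extension. Each ungapped eight-base word, pooled with its reverse complement, was scored with an E-score from the Universal PBM Analysis Suite.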
row,Sequence,PBM E-score
1,GCTTCTGA,0.0764
2,GGAACTTA,-0.0446
3,AGACATGA,-0.0781
4,GAGTCAGC,-0.189
5,CCTAGGAC,-0.242
6,CCCCTCAC,-0.287
7,GCGATGCC,0.319
8,GTGAGCAA,-0.0385
9,TGCTTCCA,-0.184
10,AGGGCCAG,-0.133
11,ACTGCAGT,-0.0716
12,CTTCTGGA,0.0387
13,AGAATTCA,0.105
14,GGCCTCCC,-0.301
15,ACTCCCAT,-0.0172
16,CCGGGACG,-0.25
17,CATCTCCA,-0.188
18,TTATACAA,0.25
19,ATTGACTG,-0.0974
20,ATTTTCGG,0.076
21,CGCTGTAA,0.0911
22,ACGAACAT,-0.00251
23,ACACATTG,0.0337
24,CAATAGCG,0.00407
25,CTATTAAC,0.0772

row,Sequence,PBM E-score
1,AGCCCTAC,0.0199
2,GTGTTGCA,0.127
3,GACATGCC,0.0796
4,AGAAATCT,0.197
5,GTCATCTA,0.0354
6,ATAAGGAA,0.00857
7,GGGATTAA,-0.0865
8,ACAGGAGA,-0.035
9,CATCCGAC,0.0344
10,ACAGGATG,-0.0316
11,ACTCCCAG,-0.264
12,ATCAGCCG,0.106
13,ACATCCGC,0.205
14,TGGGAGAA,-0.189
15,GGTGCGCA,0.0539
16,AGGTTTGC,0.0228
17,ACTATGGC,-0.0227
18,ACTTGGAG,-0.115
19,AGTCGACT,0.0504
20,ACAGATGT,-0.149
21,GCGCGCGA,0.285
22,ACATTCCC,-0.00691
23,GACGAAAC,0.192
24,TATTCAAA,0.242
25,AGTGTGGA,-0.0557

row,Sequence,PBM E-score
1,ATTCGACG,-0.0394
2,ATACCCAC,-0.163
3,AAGATAAA,0.31
4,AGTGTCAT,-0.0136
5,AGGACCGA,-0.194
6,CAGCGTGA,-0.188
7,AGGATTTA,0.02
8,ATGTTTAG,0.114
9,TCTCCCAA,-0.136
10,CTCATCAG,0.0519
11,GCTTCACC,-0.153
12,CCTCTATC,-0.223
13,ACGCGAGG,0.0793
14,AAGCGGTA,-0.0388
15,AACAAAGC,0.107
16,ATCCTCAG,-0.0791
17,CGCCTCGA,0.205
18,CATAACCG,-0.0149
19,CCCCGGCC,-0.404
20,ATCTTGTG,-0.11
21,AAGGAAGT,0.0374
22,TACAGACA,0.171
23,TGACGACA,-0.0157
24,CCCGCGCA,-0.0346
25,CCTTCCGA,0.0578

row,Sequence,PBM E-score
1,GGTTTTAC,-0.126
2,CCACCGCA,-0.118
3,TACATTCA,-0.0994
4,GCAGCATA,0.0149
5,CCCCTACA,-0.255
6,ACGCAAAA,0.0612
7,AGTTTCAT,0.111
8,CACCAGAC,0.0249
9,GAAAAGCA,-0.114
10,CTTCGAAG,0.0561
11,GATCGTGC,0.127
12,ATGCTTAC,-0.164
13,AACGGTAG,-0.212
14,GCACTGGC,-0.147
15,GAGCACAA,-0.00748
16,ACTCGTCC,-0.0203
17,CAAATTTA,0.236
18,CATGCGAC,-0.00366
19,GCAAGCAA,0.00336
20,AATTGGAG,-0.143
21,CCGCCGCC,0.194
22,TATCCCGA,-0.168
23,CAGGTCTC,-0.197
24,ATTGTCCA,0.111
25,AGGTTTAG,-0.24

row,Sequence,PBM E-score
1,AACAATTC,0.0872
2,CGCGCGGC,0.483
3,CAAAAAGC,0.187
4,ATCTTAAC,0.186
5,ATTGCTGC,0.199
6,CAACCCTC,-0.287
7,CCCGGCTA,-0.148
8,GGTTAACA,0.0916
9,AGTATAAC,-0.113
10,CGGAGTCA,-0.0711
11,CAGGGCCG,0.187
12,GAATCCCA,-0.0304
13,TCGTTCAA,-0.104
14,CTATTAAA,0.261
15,AATTAGTG,0.193
16,CCTGGCAC,-0.0915
17,AGTAGAAC,-0.118
18,ACAGATTA,-0.146
19,AGGATGCC,0.0869
20,AGAAGCTG,-0.0485
21,ACCTTAGA,-0.0927
22,AGCATTCG,-0.154
23,CTAGAAGC,-0.0655
24,CCAGTAGA,-0.176
25,GGATCTTA,-0.0225

row,Sequence,PBM E-score
1,ATCATAAC,0.161
2,AGAGTCGC,-0.166
3,GAGCGTCC,-0.314
4,AATGGACG,0.278
5,TCGGAACA,0.0567
6,GGGGCTGA,-0.254
7,ACTCCTAG,-0.123
8,ATGACACC,-0.27
9,GCACTACA,0.0263
10,ATCGATTA,0.0837
11,CCAATGCC,0.152
12,ACGTATCT,-0.111
13,CGTAGCCC,-0.107
14,ATTTAACG,0.208
15,GAAACCGC,0.184
16,AATGTTGG,0.196
17,AAGGGCCT,-0.258
18,ATTCTTCA,-0.0361
19,AGGGGGGA,-0.454
20,AATGGTGC,0.066
21,CACTGGGA,-0.16
22,TAGTTCCA,0.111
23,AATATCTG,-0.0587
24,AACGGCGA,0.452
25,GGGCATCA,0.104

row,Sequence,PBM E-score
1,CTGATGTC,0.0864
2,ACTGAACC,-0.173
3,ACTAACGC,0.0748
4,AACAAGAC,-0.0256
5,AGCTCCGC,-0.0821
6,GACTGATA,-0.134
7,CGGTACAC,-0.205
8,ATTAGGGA,-0.145
9,AAACGCTG,-0.101
10,CTATGCTC,-0.317
11,CGCAGGAG,-0.0328
12,AATAGGGG,-0.182
13,GCCCACAC,0.126
14,AAGGTGTC,-0.0527
15,ACGGTAGT,-0.121
16,TGCGGCAA,0.412
17,GTAACCAC,-0.136
18,AGAAAGAT,0.144
19,CATACTTC,-0.12
20,CTTCCTTC,-0.17
21,GCAGTAAA,-0.0295
22,AGCTTAAC,-0.207
